Experimental findings from paper PMC5441861 are described below.

No constants are given. Whether binding was seen depends on the method and setting. For some of these results: In cells and extracts the contact can be indirect. Some results given as binding are weak or reduced against the parent protein; the word gives no strength. Tags and fused reporters may be left off the sequences shown.

The target of assay [1] is T1, GAL4 DNA-binding domain (DB)–FSD1 (Arabidopsis thaliana) (UniProt P21276).
T1 sequence: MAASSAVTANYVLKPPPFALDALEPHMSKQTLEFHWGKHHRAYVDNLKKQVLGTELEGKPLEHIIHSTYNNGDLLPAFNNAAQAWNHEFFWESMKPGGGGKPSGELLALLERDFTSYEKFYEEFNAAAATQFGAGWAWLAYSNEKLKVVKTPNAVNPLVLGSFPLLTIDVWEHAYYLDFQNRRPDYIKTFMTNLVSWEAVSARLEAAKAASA
The assay is described as follows: two-hybrid; ORFs in pDEST-AD (GAL4 AD) against ORFs in pDEST-DB (GAL4 DB); diploid yeast, growth on selective media.

For assay [2], the target named is T2, GAL4 DNA-binding domain (DB)–FSD2 (Arabidopsis thaliana) (UniProt Q9LU64).
T2 sequence: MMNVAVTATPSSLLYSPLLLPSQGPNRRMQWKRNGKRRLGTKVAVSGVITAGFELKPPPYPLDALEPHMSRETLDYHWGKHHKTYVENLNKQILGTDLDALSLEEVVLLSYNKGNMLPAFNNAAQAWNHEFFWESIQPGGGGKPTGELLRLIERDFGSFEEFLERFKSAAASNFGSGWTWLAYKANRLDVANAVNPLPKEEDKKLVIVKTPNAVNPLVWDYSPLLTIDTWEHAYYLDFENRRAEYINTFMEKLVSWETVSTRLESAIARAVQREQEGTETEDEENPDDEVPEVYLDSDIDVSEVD
The description is as above.

In assay [3] the target is T3, cYFP–FSD2 (Arabidopsis thaliana) (UniProt Q9LU64).
T3 sequence: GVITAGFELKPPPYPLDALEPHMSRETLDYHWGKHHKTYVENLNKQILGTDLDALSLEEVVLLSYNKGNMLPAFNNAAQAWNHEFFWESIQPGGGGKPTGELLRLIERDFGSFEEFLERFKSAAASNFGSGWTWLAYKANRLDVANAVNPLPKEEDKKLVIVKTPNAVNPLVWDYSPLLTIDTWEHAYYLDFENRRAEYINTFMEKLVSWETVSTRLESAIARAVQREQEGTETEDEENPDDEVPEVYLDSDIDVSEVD
The assay is described as follows: split reporter; BiFC; agro-injection of nYFP and cYFP fusions in N. benthamiana epidermal cells at OD600 0.1, observed after 1–2 d under epifluorescence microscopy.

B1: GAL4 activation domain (AD)–LSU1 (protein, UniProt Q9SCK1 1-94)
chain: MANRGGCVTVAAEEMDELRRRNIELSREVAEMKTEMIKLWQRTVVAEEAEEQLCSQLAELEVESLEQARDYHDRMLFLMDQISRLSSSSVVSSS
For B1, the binding entry is on record as “no binding” in assay [1] and “binds” in assay [2].

B2: nYFP–LSU1 (protein, UniProt Q9SCK1 1-94)
chain: B1 chain
For the molecule B2, in assay [3], the binding result is reported as “binds”.

B3: nYFP fusion with PHOSPHATASE AND TENSIN HOMOLOG DELETED ON CHROMOSOME TEN 1 (protein, UniProt Q9FLZ5 1-412)
chain: MGLKLSRGPVKEKSPLEFTRVHILTYFTTNSYLRNLVSKKRRRLIIGGYDLDMSYISDKLLAMSFPAERMRAVYRNPLWQVKSVLDMRHPDHYKVYNLCIEESYDPDNFYGRVERFPFDDNHVPSLKMIQLFCESVHSWLSLDPKNIAVVHCMAGKGRTGLMVSAYLVYGGMSAEEALEMYASRRTTNNNGVSIPSQRRYVKYWSDLLSFSKKGPPEVKLPQEHSRELLRIRLYDTANVDSVFFVVSELQEVPNEMYRPSVELARGCCRQFKKGYCRSSSPRYYISHVNCDSEEDEEVTDGEEPHLVVQMDTESSIIDEKTCLDFYFDKPVRVSGDIRITFYQKMIGSRLFYTCFNTAFITNGLLQFSIGELDKVGGNGRSISGPDFSLELLFGPACSKFGKFLSRDDLSLS
On to B3, for which the binding result in assay [3] is “no binding”.

B4: GAL4 activation domain (AD)–LSU2 (protein, UniProt Q9FIR9 1-94)
chain: MGKGGNYVTVAASEVDELRRKNGEMEKAVEEMKKEMLQLWRRTQVAEEAEERLCSQLAELEAESLDQARDYHSRIIFLMNELSRLSSDSASASP
For the molecule B4, the binding result is “no binding” in assay [1] and “binds” in assay [2].

B5: nYFP–LSU2 (protein, UniProt Q9FIR9 1-94)
chain: B4 chain
As for B5, the binding entry in assay [3] is reported as “binds”.
